# Reference: PMC4336329 (PLoS ONE, 2015)
# The whole screen tested about 310,000 compounds, of which about 14,000 (4.5%) showed an effect of 50% or more. The effect is printed as a negative number. This is one part of the list.
# Molecular target: human ether-à-go-go-related gene (hERG) potassium channel (human, UniProt Q12809)
# Assay: primary screen, population patch clamp on CHO cells stably expressing hERG
# 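Also: peak tail current of the secondary pulse compared with the same well before compound.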
# human ether-à-go-go-related gene (hERG) potassium channel, sequence (Q12809 whole entry, looked up): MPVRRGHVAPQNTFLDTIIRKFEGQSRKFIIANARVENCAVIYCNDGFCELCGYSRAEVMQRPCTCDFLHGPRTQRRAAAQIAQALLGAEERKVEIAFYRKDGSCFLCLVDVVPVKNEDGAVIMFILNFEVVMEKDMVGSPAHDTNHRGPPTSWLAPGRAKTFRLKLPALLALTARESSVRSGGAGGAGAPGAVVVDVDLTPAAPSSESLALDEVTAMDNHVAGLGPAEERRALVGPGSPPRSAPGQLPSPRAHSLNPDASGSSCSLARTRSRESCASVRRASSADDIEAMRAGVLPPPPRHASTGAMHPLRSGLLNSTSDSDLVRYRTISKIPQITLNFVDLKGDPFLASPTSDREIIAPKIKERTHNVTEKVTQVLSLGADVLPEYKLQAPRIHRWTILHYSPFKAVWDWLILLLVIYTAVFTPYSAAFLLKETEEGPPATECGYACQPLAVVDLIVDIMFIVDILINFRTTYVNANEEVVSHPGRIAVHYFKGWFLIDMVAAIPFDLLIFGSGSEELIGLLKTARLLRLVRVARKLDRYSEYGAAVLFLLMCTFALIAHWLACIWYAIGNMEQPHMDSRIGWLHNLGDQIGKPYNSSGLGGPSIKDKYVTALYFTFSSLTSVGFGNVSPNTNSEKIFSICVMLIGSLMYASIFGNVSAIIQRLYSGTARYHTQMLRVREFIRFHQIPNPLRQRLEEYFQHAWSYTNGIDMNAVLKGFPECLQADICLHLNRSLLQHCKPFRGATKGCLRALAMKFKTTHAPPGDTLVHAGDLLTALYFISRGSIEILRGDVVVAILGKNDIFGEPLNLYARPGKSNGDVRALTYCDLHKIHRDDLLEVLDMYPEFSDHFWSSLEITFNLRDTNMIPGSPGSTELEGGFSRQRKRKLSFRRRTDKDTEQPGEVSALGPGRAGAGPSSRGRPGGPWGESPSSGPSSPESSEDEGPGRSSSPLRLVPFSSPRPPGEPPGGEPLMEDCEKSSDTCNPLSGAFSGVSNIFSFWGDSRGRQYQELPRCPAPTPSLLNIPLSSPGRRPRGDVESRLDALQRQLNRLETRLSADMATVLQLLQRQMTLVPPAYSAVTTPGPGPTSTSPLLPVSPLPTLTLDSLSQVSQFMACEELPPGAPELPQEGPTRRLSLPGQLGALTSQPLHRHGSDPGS
row,SMILES,"hERG current change (%, negative = inhibition) at 10uM [%]"
1,CCOc1cc(S(=O)(=O)N2CC=C(c3ccc(F)cc3)CC2)c(OCC)cc1-n1cnnn1,-33.8
2,Cc1cc(C)n(-c2ccc(C(=O)OCC(=O)Nc3ccc(Cl)c(S(=O)(=O)N(C)C)c3)cc2)n1,-16.6
3,Cc1cccc(C(=O)O)c1[N+](=O)[O-],13.4
4,COc1ccc(C2=NN(C(=O)/C=C/c3ccccc3)C(c3ccccc3)C2)c(OC(C)=O)c1 (stereo not drawn),-9.5
5,CC1CCCC(N2CCN(C(=O)c3ccccc3F)CC2)C1 (stereo not drawn),-11.5
6,C#CCn1c(=NC(=O)c2cccs2)sc2cccc(OC)c21,18.3
7,CCc1cc2c(=O)n(CC(=O)NCCc3ccc(OC)c(OC)c3)cnc2s1,23.7
8,CC1=NOC2(C1)N(C)c1ccccc1C2(C)C (stereo not drawn),4.94
9,COc1ccc(C(=O)Cc2cc(OC)c(OC)cc2[N+](=O)[O-])cc1,17
10,Cc1ccc(OCC(=O)N/N=C/c2cn[nH]c2-c2ccc(Cl)c(Cl)c2)cc1,12.2
11,CC(C)COc1ccc(Br)cc1CNC(C)(C)C.Cl,-41.8
12,CCN(CC)c1nc2c(c(=O)n(C)c(=O)n2C)n1CCCc1ccccc1,-3.09
13,FC(F)(F)c1ccccc1-c1nc(-c2ccncc2)no1,-0.794
14,Cc1cc(NS(=O)(=O)c2ccccc2)n(-c2ccccc2)n1,-1.45
15,Oc1cccc(/C=N/N(Cc2ccccc2)c2ccccc2)c1,1.46
16,CCCC(c1nnnn1C1CCCCC1)N1CCN(C2CCCC2)CC1.Cl (stereo not drawn),-46.4
17,Cc1ccc(CNC(=O)Nc2ccc3c(c2)N(C)C(=O)CS3)cc1,-9.48
18,CCOc1ccc(N2C(=O)/C(=C/c3ccccc3)N=C2SC)cc1,11.3
19,Cc1cccc(Nc2nnc(SCC(=O)c3c(N)n(C4CC4)c(=O)[nH]c3=O)s2)c1,16.9
20,O=C(Nc1ccccc1)c1ccccc1OS(=O)(=O)c1ccccc1,5.99
21,COc1cc(/C=C(\C#N)c2ccccn2)ccc1OCC(=O)Nc1c(Cl)cccc1Cl.Cl,9.49
22,CCOc1ccccc1NC(=O)Nc1ccc(CC#N)cc1,3.28

row,SMILES,"hERG current change (%, negative = inhibition) at 10uM [%]"
1,COc1cc(-c2ccccc2)[nH]c(=S)n1,22.3
2,CCOc1ccccc1OCC(=O)Nc1cc2c(cc1C(=O)O)OCCCO2,5.71
3,Oc1ccccc1/C=N/NC(=S)NC1CC2CC1C1C=CCC21 (stereo not drawn),27.3
4,O=C1CCCC/C1=N\Nc1ccc(C2CCCCC2)cc1,12.8
5,CCCc1cnc(N2CCN(C(=S)NC)CC2)nc1,-35.6
6,COc1ccc(C(=O)CSc2nc3ccc([N+](=O)[O-])cc3[nH]2)cc1,2.18
7,Cc1ccc(N(CC(=O)NC2CCCCC2C)S(=O)(=O)c2c(C)noc2C)cc1 (stereo not drawn),6.65
8,COc1cccc(CC2(CO)CCCN(Cc3[nH]c4ccc(C)cc4c3C)C2)c1 (stereo not drawn),-74.7
9,Cc1ccccc1-c1nnc(SCC(=O)Nc2ccc(Cl)cc2)n1N,10.7
10,CC(C)(C)C(=O)OC[N+](C)(C)CCOC(=O)C(O)(c1ccccc1)C1CCCC1.[Cl-] (stereo not drawn),-9.56
11,CCOC(=O)Cc1csc(NC(=O)Cn2c(=O)oc3ccccc32)n1,6.92
12,Cc1cc(C(=O)Nc2c(C)n(C)n(-c3ccccc3)c2=O)c2ccccc2n1,-7.61
13,CCCCc1nnc(NC(=O)CSc2nc(=O)cc(N)n2-c2cccc(C)c2)s1,6.3
14,CCOc1ccc(CN2CCN(C/C=C/c3ccc(OC)cc3)CC2CCO)cc1 (stereo not drawn),-88.7
15,CC(=O)Nc1cccc2ncccc12,4.23
16,O=C(Nc1cccc(-c2nc3ccccc3o2)c1)c1ccc(N2C(=O)C3C4C=CC(C4)C3C2=O)cc1 (stereo not drawn),-0.101
17,Cc1ccc(C(O)CCc2ccc(N)cc2)cc1 (stereo not drawn),9.51
18,O=C(CSc1nc(-c2ccccc2)cc(C(F)(F)F)n1)NCc1ccco1,6.86
19,Cc1cc(OCC(=O)N2C[C@H]3C[C@@H](C2)c2cccc(=O)n2C3)c2c(C)cc(=O)oc2c1,10.3
20,O=C(COc1ccc(C(=O)NCCc2ccccc2)cc1)Nc1ccccc1,7.64
21,Cc1csc(SCC(=O)Nc2sc3c(c2C#N)CCC3)n1,12.1
22,CCn1nc(C)c(CN2CCC(n3nccc3NC(=O)Cc3ccccc3)CC2)c1C,6.57

row,SMILES,"hERG current change (%, negative = inhibition) at 10uM [%]"
1,CCOC(=O)c1nnn(CC(=O)N2N=C(c3ccccc3)CC2c2ccccc2)c1C(=O)OCC (stereo not drawn),9.49
2,O=C(NN=C(c1ccccc1)c1ccccc1)C(CCl)C1CCCCC1 (stereo not drawn),-2.74
3,CCC(=O)N/C(=N\OCc1ccc(F)cc1)c1nonc1NC(=O)CC,9.02
4,O=C(NC(=O)c1cc[nH+]cc1)NC(c1ccccc1)c1ccccc1.[Cl-],0.971
5,CCOC(=O)c1[nH]c2ccccc2c1NC(=O)CC,3.15
6,Cc1ccc(NC(=O)CN(c2cc(C)cc(C)c2)S(=O)(=O)c2c(C)noc2C)nc1,-40.3
7,COc1ccccc1Nc1nc(NCCO)nc(N2CCCC2)n1,-2.85
8,COc1ccc(S(=O)(=O)NNC(=O)C23CC4CC(CC(C4)C2)C3)cc1,-2.12
9,Fc1ccccc1NC(=S)N(CCN1CCCCC1)Cc1ccco1,-51.2
10,COCCn1nnnc1C(c1ccc(Cl)cc1)N1CCSCC1.Cl (stereo not drawn),-51.9
11,COCc1cccc(N2C(=O)CC(C3C=C(C)C4C(=O)N(c5cccc(COC)c5)C(=O)C4C3)C2=O)c1 (stereo not drawn),-12.7
12,O=C(CCSc1nnc(-c2ccncc2)o1)Nc1ccc(F)cc1,-16.4
13,CCOC(=O)N1CCN(C(=O)COc2ccc3ccccc3c2Br)CC1,-27.9
14,CCCN(C(=O)COC(=O)CCOc1ccc(C)cc1)c1c(N)n(Cc2ccccc2)c(=O)[nH]c1=O,-19.2
15,C=C1CC2C3CC[C@@]4(OCOC45COCO5)[C@@]3(C)C(O)CC2[C@@]2(C)CCC(=O)C=C12 (stereo partly drawn),12.3
16,COC(=O)c1ccccc1NC(=O)N1c2ccccc2Sc2ccccc21,1.39
17,CN1OC[C@@H]2COc3ccc4ccccc4c3[C@@H]21,18
18,CCOc1ccc(CNS(=O)(=O)c2c(C)nc3scc(C)n3c2=O)cc1OC,8.99
19,COCCNC(=O)Cn1cc(/C=C(\C#N)C(=O)NC2CCCC2)c2ccccc21,14.4
20,Cc1nn(-c2ccccc2)c2[nH]c(=O)c(CNCCN3CCOCC3)cc12,-11.4
21,Oc1cccc(C=NCc2ccccc2)c1O,-3.91
22,CN(CC(=O)Nc1cccc(F)c1)C(=O)c1cn(-c2ccccc2)nc1-c1ccc(F)cc1,-4.57

row,SMILES,"hERG current change (%, negative = inhibition) at 10uM [%]"
1,Cc1cc(NC(=O)/C=C/c2ccc(Br)cc2)no1,12.6
2,Cc1ccc(C2(C)NC(=O)N(CC(=O)NCc3cccs3)C2=O)cc1 (stereo not drawn),7.71
3,CC(C)(C)c1cc(O)c(C(C)(C)C)cc1O,-12.4
4,N#CC(=C=[N-])c1nc2ccccc2nc1-[n+]1ccccc1,-2.11
5,Clc1cccc(Cl)c1COc1ccccn1,1.76
6,COc1cc(NC(=O)CSc2nnc3c(C)cc4c(C)ccc(C)c4n23)c(C(=O)O)cc1OC,27.1
7,Cc1ccc(C(=O)Nc2ccc(C(=O)N3CCCCC3C)cc2)cc1 (stereo not drawn),-38
8,CCOc1ccc(CN(Cc2ccco2)C(c2cccs2)c2nnnn2C(C)(C)C)cc1 (stereo not drawn),-1.63
9,COCCCN1C(=O)C(=O)/C(=C(/O)c2ccc(S(=O)(=O)N3CCCCC3)cc2)C1c1ccc(O)cc1 (stereo not drawn),16.2
10,COc1ccc(C)cc1S(=O)(=O)Nc1cccc(Cl)c1Cl,-0.351
11,COC(=O)c1sc(NC(=O)Cc2cccs2)nc1C,2.88
12,CCc1ccccc1N1CC(C(=O)O)CC1=O (stereo not drawn),-11.2
13,CN1CCN(c2nc3c(c(=O)[nH]2)CCC3)CC1,26.7
14,OCCCNCc1cccc2ccccc12,-15.8
15,Cn1c(=O)n(C)c2cc(/C=N/NC(=S)NCc3ccccc3)ccc21,-10.3
16,CC(C)(C)NC(=O)C(c1ccc(O)cc1)N(C(=O)CCC(=O)Nc1nccs1)c1cccc(F)c1 (stereo not drawn),16.8
17,COCCn1c(C)cc(C(=O)Cn2nc(C(=O)O)c3ccccc3c2=O)c1C,-3.4
18,O=C(CCCCCN1C(=O)c2ccccc2C1=O)Nc1ccccc1F,-13.3
19,Cc1ccc(N2CCN(c3cc(C)nc4nc(C)nn34)CC2)c(C)c1,-72.6
20,O=C(COC(=O)CCN1C(=O)c2ccccc2C1=O)Nc1ccccc1[N+](=O)[O-],14.6
21,CCOc1ccc(CN2CCN(CC3=Cc4cccc(OC)c4OC3)CC2CCO)cc1 (stereo not drawn),-83.4
